Assay [1] has as its target T1, Cmr (Rv1675c), member of the CRP/FNR super-family of transcription regulators (Mycobacterium tuberculosis H37Rv), P9WMH5.
T1 chain: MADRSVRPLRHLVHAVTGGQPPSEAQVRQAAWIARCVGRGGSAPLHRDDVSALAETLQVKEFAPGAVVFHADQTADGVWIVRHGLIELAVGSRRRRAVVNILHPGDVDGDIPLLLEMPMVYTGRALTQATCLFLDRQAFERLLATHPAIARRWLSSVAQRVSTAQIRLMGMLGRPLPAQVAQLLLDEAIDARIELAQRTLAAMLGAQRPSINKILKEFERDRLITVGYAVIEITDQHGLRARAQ
As to the kind of experiment: cross-linking; chemical cross-linking of Cmr; reagent and conditions not shown (Supplementary Figure S1). The settings on record: remark: other sources report otherwise.

In assay [2] the target is T1, Cmr (Rv1675c), member of the CRP/FNR …. As to the kind of experiment: SEC; gel filtration of Cmr; conditions not shown (Supplementary Figure S1). The settings on record: remark: other sources report otherwise. On the technique in general: Size exclusion chromatography separates by hydrodynamic size, large species first.

B1: Cmr (Rv1675c), member of the CRP/FNR super-family of transcription regulators, P9WMH5 1-244 (natural protein)
chain: T1 chain
In the case of B1, the stoichiometry N in assay [1] and in assay [2] was 2 in each case.

One may read the stoichiometry N as the number of molecules, sites or subunits per partner or assembly.

(Values after article PMC5499769.)
